We go through 32 compounds from PubChem BioAssay AID488969 (Vanderbilt High Throughput Screening Facility, 2010).

Whole data set: some 110,000 compounds, median “z-score” near -0.1, cut for the highest 2% near 2. This is one part of the list. Active and inactive are the calls of the source.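 Rule for the calls: active = z-score in the third read window above 3 or below -3; inactive = the rest.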

The target of the assay is Metabotropic glutamate receptor 8 (Rattus norvegicus) (UniProt P70579). Kind of assay: rat mGluR8 modulators via GIRK flux, primary screen, cell-based, thallium flux, HTS (AID 488969). Conditions: HEK293 rat mGluR8, GIRK (G protein-gated inwardly rectifying potassium channel) thallium flux, FluoZin2; at 10 µM; stronger effect = higher value; submaximal glutamate (EC20) added with thallium.
Chain of UniProt P70579 (P70579 whole entry, looked up): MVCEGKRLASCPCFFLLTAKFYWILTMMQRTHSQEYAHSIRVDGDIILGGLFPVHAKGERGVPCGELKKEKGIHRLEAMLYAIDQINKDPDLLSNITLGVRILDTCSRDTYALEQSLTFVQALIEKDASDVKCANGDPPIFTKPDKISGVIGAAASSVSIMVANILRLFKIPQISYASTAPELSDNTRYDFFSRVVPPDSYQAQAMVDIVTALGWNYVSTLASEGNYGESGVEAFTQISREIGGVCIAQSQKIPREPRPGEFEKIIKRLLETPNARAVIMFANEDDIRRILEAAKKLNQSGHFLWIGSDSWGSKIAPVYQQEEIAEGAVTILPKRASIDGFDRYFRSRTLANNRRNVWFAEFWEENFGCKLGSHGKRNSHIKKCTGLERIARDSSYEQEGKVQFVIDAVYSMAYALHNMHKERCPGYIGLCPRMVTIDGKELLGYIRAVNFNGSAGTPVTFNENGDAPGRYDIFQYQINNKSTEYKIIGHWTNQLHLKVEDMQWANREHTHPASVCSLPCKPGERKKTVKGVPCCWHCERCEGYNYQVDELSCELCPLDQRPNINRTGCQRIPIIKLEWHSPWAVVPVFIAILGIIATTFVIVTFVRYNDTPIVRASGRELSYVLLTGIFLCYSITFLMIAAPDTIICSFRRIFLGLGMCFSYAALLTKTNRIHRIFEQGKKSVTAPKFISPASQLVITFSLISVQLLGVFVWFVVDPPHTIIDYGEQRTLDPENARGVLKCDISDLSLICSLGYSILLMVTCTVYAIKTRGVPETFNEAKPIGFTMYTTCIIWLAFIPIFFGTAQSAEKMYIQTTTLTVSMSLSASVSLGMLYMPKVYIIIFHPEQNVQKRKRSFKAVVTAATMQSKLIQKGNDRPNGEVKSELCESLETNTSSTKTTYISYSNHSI
Consider `CCS(=O)(=O)N1Cc2ccccc2CC1C(=O)NC(C)C12CC3CC(CC(C3)C1)C2` (configuration not stated), for which the z-score is -0.238.

For `CCn1c(-c2ccco2)nc2ccccc21`, the z-score was -0.224. The value for `COC(=O)c1ccc(C(=O)OC)c(NC(=O)CSCc2ccccc2Br)c1` was 0.157; that for `CCOCCOC(=O)C(C)Oc1ccc(Oc2ncc(Cl)cc2Cl)cc1` (configuration not stated) was -0.465. The value for `CN1C(=O)N(C)C(NC(=O)Nc2ccccc2)C1NC(=O)Nc1ccccc1` (configuration not stated) was 0.955; that for `COc1ccccc1OCC(O)Cn1c(=N)n(CCN2CCCCC2)c2ccccc21` (configuration not stated) was -0.0021; that for `O=C(c1cc2ccccc2cc1OCC(O)CN1CCCCC1)N1CCCCC1` (configuration not stated) was -0.457. In turn, `O=C(c1ccccc1)c1cccc(NC(=O)C2CC2)c1` had a z-score of -0.259.

In the case of `COc1ccc(Cc2nc(-c3ccccc3)no2)cc1`, the z-score was 0.83. The value for `Cc1cc(C(=O)N2CCOCC2)n(-c2ccccc2)n1` was 0.0667; that for `CC(=O)NCCc1nc2ccccc2n1Cc1ccccc1` was -0.0359.

Take `COc1ccc2cc(C3(C)NC(=O)N(CC(=O)NCCC4=CCCCC4)C3=O)ccc2c1` (configuration not stated): the z-score was -0.227. The value for `Oc1ccccc1/C=N/Nc1cc(N2CCCC2)nc(N2CCCC2)n1` was 0.0189. The value for `C/C(=N\NC(=O)CC1N=C(Cc2ccccc2)NNC1=O)c1ccc(Cl)cc1Cl` (configuration not stated) was 0.303; that for `O=C1CC(c2ccc(F)cc2)Cc2nc(NCC3CCCO3)ncc21` (configuration not stated) was -1.01.

With `COc1ccc(S(=O)(=O)NCCC(=O)NC2CCCCCCC2)cc1`, the z-score was active: 3.82.

`COC(=O)c1ccc(-c2nc(-c3cccs3)no2)cc1` came in with a z-score of 0.555. To `Cc1cc(N/C=C/C(=O)c2cccc3ccccc23)no1` belongs -0.0252. The value for `COC(=O)CSc1nc2nc(C)cc(C)n2n1` was -0.251; that for `COC(=O)CSc1nnc(CCc2nc3ccccc3[nH]2)n1C` was -0.318.

For `CCOc1ccc(N2C(=O)CCC2=O)cc1`, the z-score was -0.0642. The value for `CCCN(Cc1cc2ccc(C)cc2[nH]c1=O)C(=O)c1ccccn1` was -0.608; that for `CS(=O)(=O)Nc1ccc(C(=O)N2CCCC2)cc1` was -0.0758; that for `Cc1ccc(N(C)C(=O)N2CCN(S(=O)(=O)c3ccc(C)cc3)CC2)cc1` was -0.924.

`C=CCNC(=S)Nc1ccc2nc(C)c(C)nc2c1` had a z-score of 0.0978.

`Cc1cc(=O)oc(C)c1C(=O)N1CCN(C(c2ccccc2)c2ccccc2)CC1` had a z-score of 0.596. To `O=S1(=O)CCC(NCC2CCCO2)C1` (configuration not stated) belongs -0.277; to `Cc1nn(-c2ccccc2)c2c1C(c1cccs1)C(C#N)=C(N)O2` (configuration not stated), -0.477. The value for `O=[N+]([O-])c1ccc(N2CCCCC2)cc1N1CCOCC1` was -0.191.

`O=C(NC(=S)NC1CCSC1=O)c1ccccc1` (configuration not stated) showed a z-score of -0.149. The value for `O=C(CN1C(=O)c2ccccc2S1(=O)=O)N1CCN(Cc2ccc3c(c2)OCO3)CC1` was -0.0376; that for `COc1ccc(C2C(C#N)=C(N)N(c3cccnc3)C3=C2C(=O)CCC3)cc1Cn1cc([N+](=O)[O-])cn1` (configuration not stated) was -0.0646.
